Source: the supplement of paper PMC4466236
Over roughly 33,000 sequences, “E-score (dimensionless, -0.5 to 0.5)” has its median near -0.058; the highest 2% begin near 0.35. The list shows a part of the results.

system: MvaT; assay: PBM 8-mer E-score (mean of HK and ME arrays) (E-score (dimensionless, -0.5 to 0.5)); higher = stronger relative binding preference; most listed sequences are background and not binding sites
Procedure, shortened: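 Full-length P. aeruginosa MvaT carrying an N-terminal glutathione S-transferase tag was tested by protein binding microarray following a previously described protocol. Two universal double-stranded 60-mer arrays, ME and HK, were used, each with a constant 25-mer primer region and a variable 35-mer region covering all 8-mers. The rank-based E-score is the mean of the two arrays, parsed with a custom script. Its range runs from -0.5 to 0.5 for each 8-mer.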

Sequence | PBM 8-mer E-score
AGTACGAT | 0.0378
CTCGAGAC | -0.0769
ATCAACTC | 0.0659
CCGCGCGA | -0.104
GTTATATA | 0.456
TGTACGAA | 0.0758
ATTATAAT | 0.468
CTTGTGGC | -0.154
ACAATCAG | 0.0332
GGGTCTTA | -0.076
CACGGCAC | -0.047
CACTTAAC | 0.132
ACCTCCGT | -0.218
GTACGTTA | 0.2
CTTATACC | 0.268
AGTCTAAA | 0.133
CCAGAAAC | -0.0182
ACCAACTC | -0.0171
ACGCCAGT | -0.271
GTTTCGTA | 0.0193
GGGGCCCC | -0.29
CTTCCGAC | -0.0694
GGAAACAA | 0.206
ACGAATAC | 0.157
AATACGGC | 0.183

Sequence | PBM 8-mer E-score
AGTTGTGA | 0.159
CCAAACAA | 0.0179
ACACCATG | -0.0471
AAGCCTCG | -0.197
GATCAGAC | -0.035
CCGCCCGC | -0.0309
ATTATTGC | 0.292
CCTTGTAA | 0.14
CCCCTGTA | -0.28
CAATCAAA | 0.173
AACAATCC | 0.126
ACACTAAT | 0.345
CGGCTGTC | -0.311
CCCGGCTC | -0.251
CGAGCGTC | -0.177
CCTTCGAA | -0.024
AGACTCTA | -0.0143
TAGATTAA | 0.266
CGTTGTGC | -0.144
AAGGCGAC | -0.204
CTATCGGC | -0.185
CAGCTGAC | -0.0993
CACACTCG | 0.0108
ACGGCAGT | -0.207
ATCCACAA | 0.169

Sequence | PBM 8-mer E-score
CACGTCGC | -0.239
GCAGGAGC | -0.317
GAGATATA | 0.303
ATTCCTTC | -0.0387
GACGAACC | -0.212
ATGGTAGC | -0.0782
ACTTGTAC | 0.158
CCTCTTCC | -0.292
AAGGTACC | -0.0656
GTTACAAA | 0.245
CCAGCGCA | -0.0535
AGGGGCTC | -0.394
TACCCTCA | -0.17
GCCCAGTA | -0.124
TAAGCGTA | 0.148
CGCGGTTC | -0.155
GAGGCACA | -0.222
AGGAGGCG | -0.269
GGCCGTTA | -0.0451
GGGGGGCA | -0.304
GTCGTTTA | 0.167
AGATGATG | -0.113
ACCCCAGT | -0.141
CTTCCATA | 0.0142
CAGGAAGG | -0.199

Sequence | PBM 8-mer E-score
CAGGTAGA | -0.0433
TCGGTAGA | -0.097
CAGTCTAA | -0.0664
TGACCCCA | -0.229
GGCTAGCC | -0.351
ACGGGCTG | -0.139
AGTTAACG | 0.204
AGAGGGAG | -0.167
AAAATCTT | 0.102
AATTACCT | 0.166
GGGCATTA | -0.0452
CTTAGCTC | -0.105
CCTTCCAC | -0.103
GCTCACTA | -0.0905
ACCGGCAC | -0.089
ACAGTGAG | -0.191
CTTAGACC | -0.039
CGCTACCG | -0.188
AGCATAGC | -0.249
GGTCTCTA | -0.111
GGAGTAAC | -0.0314
AGCGATCA | -0.101
CAGCGCGA | -0.238
CATGGGGG | -0.283
TGCCGGCA | -0.0619

Sequence | PBM 8-mer E-score
AAAGCAGG | -0.187
GCATCCCA | -0.191
GGTTGGTA | 0.0024
CTATGATA | 0.157
CAGCTCTA | -0.0268
GCCCCGAA | -0.0336
TACTGAGA | 0.0687
ACTTCTTA | 0.271
AAACGGGA | -0.0786
AAAAATCG | 0.16
AAGCTCCT | -0.31
AAGTTCCG | 0.211
GTGCAGGA | -0.156
CCAATTTA | 0.212
AGAATGGA | -0.0576
CTTCCCCA | -0.251
ATTGCCGA | -0.0244
AGCCTGCA | -0.119
CTATATAG | 0.388
GGTGTACA | 0.0661
CTAAAGTA | 0.224
AACGCCTC | -0.0651
CCAGTAAC | 0.134
ATCGCAAG | -0.127
CAGGGGCG | -0.317

Sequence | PBM 8-mer E-score
CGCTTATC | 0.0289
ACCCGTAG | -0.196
ACAACCTC | -0.0749
TTCATGAA | 0.131
GCGTGTGA | -0.241
AACGACCT | -0.0501
CTGTGTGA | 0.0126
CATTGCGG | -0.0539
CCCGTCTA | -0.21
ACAGACCG | -0.151
ACACATCA | 0.0656
GAGGGGAC | -0.373
CGATTAAC | 0.0306
CATTACCG | -0.0468
ACTTAAGT | 0.314
ACAGAGCG | -0.191
ATTGTGCG | 0.199
TCTGGACA | -0.0718
ACTGTCTC | -0.0831
CATGAGTA | 0.161
AGGATTCG | -0.148
AGCTTCGA | -0.173
CTAAGCTC | -0.123
ACGGCCCT | -0.185
ATGGTGCG | -0.157

Sequence | PBM 8-mer E-score
CACTTAAG | 0.167
GAGTTTGC | 0.0199
GCACGCCC | -0.286
GCCCATGA | -0.198
GGTCCTCA | -0.193
AATCATGT | 0.113
ATATTTGA | 0.363
ATGCCTTA | 0.0517
AGTCACCA | -0.0571
AATGGCAG | 7.27e-05
AGGTGACA | -0.0864
ACATAACA | 0.149
CAATATCA | 0.304
GTCAGAAC | 0.0545
CAGCGGAA | -0.0331
AGGTTACT | 0.0371
GAAGACGC | -0.203
CACCCCGG | -0.32
AATCACAC | 0.151
GGAGTTAC | -0.0861
GACGATTA | 0.0842
CCGACCCG | -0.281
CCGGGTGC | -0.271
CAAATGTA | 0.0762
CTATCTTA | 0.192

Sequence | PBM 8-mer E-score
GCTAAATA | 0.272
CTCAACAG | -0.152
CCCTGATC | -0.224
CTGTCATA | -0.0239
ACCGGTCG | -0.188
CCCATCAC | -0.15
CGAGAAGC | -0.243
ATCACAGC | 0.0367
AATGGGCC | -0.21
CCTGCTAC | -0.173
ACTCCGCA | -0.0998
ACAGAACA | -0.035
CCATGGCA | -0.147
TAGGCGCA | -0.0598
GAAACAGC | -0.128
CCGCTAAC | -0.124
GCGGAGTA | -0.163
ACCCGGGA | -0.218
CACAATCG | -0.0847
CCAAGCAA | 0.0281
CACGTGCC | -0.0431
AGTTAGAG | 0.135
CTGTTTCC | -0.0404
AATGATCC | 0.131
AGAACAAG | 0.0432

Sequence | PBM 8-mer E-score
AAGTAGCT | -0.0477
GTTGTATA | 0.337
AAGAGGCA | -0.146
ACGTGTGC | -0.129
AAAGTCGG | 0.0698
GTTAGTGA | -0.0298
AGAATTGA | 0.0231
CTGCGACC | -0.121
AACGCCGA | -0.239
TTATCCAA | 0.29
GACGGAAC | -0.13
AGCAGTGG | -0.0628
AGGTCTGA | -0.11
AGAAAAAT | 0.0732
ACTCGAGG | -0.0621
CCTTGCCG | -0.172
GACAGCGC | -0.151
AGCGGAAC | -0.0552
ATAGCGGA | 0.0413
